Read counts are not given, so values of variants with three or more changes are uncertain.
B1: LINE1-mini (parent)
chain: GGCAGAGCUCAACACAGCGUGGCAAAGUGGCUGUGGCUAGACUGCC

Variants of: B1
Assay: self-cleavage, relative activity (ratio to wild type); higher = more cleavage; in vitro, sequencing; the parent is a self-cleaving ribozyme

Row | Variant | self-cleavage
1 | G2U C18A C46A | 0.04
2 | A11G A12G G21A C31U | 0.01
3 | G7U C15A C18U | 0.1
4 | C8G A16U G22U U34C C37G | 0.05
5 | U9G C10U C13A C46A | 0.06
6 | C23A G27C G44A | 0.09
7 | C3A A6C G7A C13U G27C | 1.5
8 | G1C C8G G22U G29U G44U | 0.01
9 | G2A C3A C18U C23U A26U U34C G35C A41C | 0.14
10 | G1A G33U G40U C46A | 0.02
11 | A16G G21U C42A | 0.03
12 | G5U C8A G21A | 0.74
13 | U20C G30A U43G | 0
14 | A6U G7U G21C C23G G29C G33U C37G | 0.01
15 | G2U A25U G27U C31G G44C C46A | 0.05
16 | A6C C18U G22U G40C C45G | 0.03
17 | G2U A4G A11C A39U | 0.03
18 | C15A G27U G30U | 0.16
19 | G7U G27U A39U | 0.06
20 | G7U A11U U34G | 0.02
21 | A6G G29A G33C G35U G40C U43A | 0.02
22 | G35U A41U G44C | 0.03
23 | G19A G29A G44A | 0.97
24 | A14U G40A G44C | 0.08

Row | Variant | self-cleavage
25 | C15G C18G U20G C23G A24C G27A | 0.01
26 | C8A U34A A41C G44C | 0.16
27 | A11G C15A C18A C23G G29U C42U U43A C45G | 0.01
28 | A12G A25G U32G | 0.02
29 | C10G C15U A26U C31A | 0.02
30 | G2U G27U G33U U43G C45A | 0
31 | G5U A11G C42A U43G C45U | 0.01
32 | A16U U20A C23A C37U U38C C46A | 0.03
33 | A16C A26C G29C U38A | 0.08
34 | C8A A11C A12G | 0.01
35 | C3U A25C C31G G33C U34C | 0.06
36 | C15U A24C U38A | 0.04
37 | C8A G22U C23G G36C | 0.19
38 | A11G C23A C37U | 0.02
39 | G2C A6U A26G G36U | 0.1
40 | A6G A14G A41U G44U | 0.06
41 | G1C C3U A12G C23G G40A | 0.01
42 | G17A U32G G35U C46U | 0.2
43 | C13G G27C U43A G44C | 0.07
44 | A26G C31A U34A G40C | 0.1
45 | G5U A12U G40A A41C C46U | 0.07
46 | G5U G27C G30U C46U | 0.03
47 | G7C C10U G19C G21U G33U | 0.03
48 | A4U G22A U34C | 0.1

Row | Variant | self-cleavage
49 | A14U C15A A26U C31U A39G A41C G44A | 0.02
50 | A14U G17U G22U A26U C37A | 0
51 | A4U C15A G33A | 0.02
52 | A12C A25C C42G | 0.01
53 | A26C U34G C42A | 0.03
54 | C13U U20G C37A U38A C42G U43C | 0.01
55 | C18G A25C U34A | 0
56 | A12G A24G G27C U38C | 0.01
57 | A6U G7U G22A G33C | 0.1
58 | C10U C15A U34G C37G | 0.04
59 | C8A A14U A39U | 0.23
60 | G2A C8U A14G G30C G36C | 0.13
61 | U9A A12C U20A G22C | 0.01
62 | U9G U28A C42G C45U | 0.06
63 | A14C C45A C46A | 0.04
64 | C3U G7A A16U U28C C37G G44A | 0.01
65 | C3A C15A A26U | 0.01
66 | A6G U20G C42U | 0.04
67 | C18G C23G U43A | 0.07
68 | U9G C13A U34G | 0.08
69 | G2A G22A A39U | 0.41
70 | G2C A12C G19U A24G | 0.02
71 | C15U G21U G44A | 0.17
72 | C8U U9A G22A G30C G35A G36A C37A | 0.05

Row | Variant | self-cleavage
73 | G29A G33C C45A | 0.04
74 | A6G C13A A41C | 0
75 | C18A G19A U32A G35C | 0.01
76 | G2A G5U A25G A41C | 0.08
77 | A6C C10U G40U | 0.06
78 | A16U G17A G19U U20G A25G | 0.02
79 | U9G G30U C31A | 0.04
80 | A4U G5A G22A C46A | 0.13
81 | C3U A16G G19U C23A | 0.11
82 | G7A U9G A11C C23U A24G | 0.01
83 | C3U G30U C31U C45A | 0.16
84 | G2U C23U G44A | 0.14
85 | A11U G21U A25G U43A | 0.03
86 | G2C U9A G22A G33A G36A | 0.07
87 | A16U A24G G29U U32G G40U | 0.1
88 | G5A C10A C18A A41U | 0.01
89 | G5U C18U U20G G29U | 0.02
90 | C3G A6U G33C | 0.09
91 | A4U C8G G17A C23A A39C C45G | 0.05
92 | C3G C8G A11C C31A G40A | 0
93 | G2C G35A U38C A39G G40U | 0.05
94 | A6G C15U G36U | 0.06
95 | G2U C15G A26U G29C U32G G40C | 0
96 | C13U A24U G40U | 0.12

Row | Variant | self-cleavage
97 | U20A G33A G36A | 0.05
98 | G2C G5A C8U G27U A41C C42U | 0.09
99 | G1A G2A G35C | 1.62
100 | C8G A12U A25G G29A G30C G40C | 0.09
101 | G1A G7U C8A | 1.95
102 | U9C G27A U32C G33C | 0.01
103 | C3A G17U A26C | 0.2
104 | G2U G5U U9A | 0.02
105 | A4G G5U U34C | 0.04
106 | U9G C13G C45U | 0.16
107 | U20C U28A G29U C31U C37U | 0
108 | G1C C15G A26G C37U | 0
109 | G2C G5C A12U G29U A39U C42U | 0.03
110 | C10G A12C A24C G33C | 0.01
111 | A11C A12U A39C | 0.02
112 | G1C G30C U38G | 0.02
113 | G5U G29A C42A | 0.31
114 | A4G G17U A39G | 0.12
115 | A26C U32G U34C C46A | 0.03
116 | A4U U20C A41C | 0.06
117 | G7A U34G G40U U43G | 0.35
118 | G5C A6C G33U | 0.13
119 | C31G U32C G33C U34G | 0.02
120 | C15G C37A U38C C45G | 0.04

Row | Variant | self-cleavage
121 | G5A C18U G40U | 0.14
122 | C3U A4U G5A A11G G27C | 0.05
123 | G1A C3A A4G | 0.87
124 | A12U A14G G17C C31U C37A | 0.01
125 | G22U C23A A24G U28C G35C G36C U43G | 0.01
126 | C8G C15A C42A | 0.02
127 | G7C A26G C31A G33A | 0.05
128 | G27C U43G C45U | 0.03
129 | A11C C18A G21A G27C | 0.02
130 | A16U G17U C37G | 0.36
131 | C13U A25G G29U U32G | 0.06
132 | A14U G19A U38A | 0.1
133 | A14U C15G C23A C45G | 0.06
134 | A12U G17A C23A G33C G44C | 0.05
135 | A24U A25G G40A C42G | 0
136 | A6C G19C A25C U32G G40A | 0.09
137 | G1U C8A G22A A24C G44A | 0.11
138 | C10A A11C G29U | 0.04
139 | G2A C8A G30C G36U | 1.84
140 | C13G A16C G33A C37G | 0.09
141 | C13A G29U U38A C42U | 0.11
142 | C8A A25C G44C | 0.3
143 | A4U G35C G36C G40A | 0.08
144 | C18A G19C A24G G33A G35C C42G | 0.03

Row | Variant | self-cleavage
145 | U9A G17A U38A | 0.08
146 | G5A C10A G22U G30A G35A G44U | 0.01
147 | A4U G7U C45U | 0.52
148 | G5U U20A U43G | 0.02
149 | C15U C23G U32C | 0.12
150 | G2U A12C G19C C31A A41U | 0.01
151 | C18G C42A C46G | 0.04
152 | G2U C8G A12C C15A G19A U38G | 0.01
153 | C8G C15A G35C C45A | 0.01
154 | A4G A6G A16U G30U U38C | 0
155 | G5U C8G A11C A12U G22A A39G | 0.01
156 | G1A G19U G30A G40U | 0.1
157 | A11G A12C C42A | 0
158 | G19A G21U A24G U38A C45U | 0.5
159 | G1U C37U C45U C46A | 0
160 | A4U U9C A11U G17A A24C A39U | 0.01
161 | A4U G17U G22U | 0.04
162 | G7U A24G A25U | 0.09
163 | C13U C23G G27U G40U | 0.12
164 | C15U G21U G40U | 0.03
165 | G2C U9G G22C | 0.03
166 | A6G C8A G27A G29U C42U | 0.07
167 | C3A G17U U20C | 0.25

Source: the RNAGym collection of RNA variant scans (doi:10.7554/elife.90254)
